# Test results taken from the supplement of paper PMC8728848.
# Some of the results follow.
# B1: Clone730PsrP (Streptococcus pneumoniae) (protein)
# chain: MDHHHHHHHHHHASENLYFQGAMVVGSQTAAATEATAKKVEEDRKKPASDYVASVTNVNLQSYAKRRKRSVDSIEQLLASIKNAAVFSGNTIVNGAPAINASLNIAKSETKVYTGEGVDSVYRVPIYYKLKVTNDGSKLTFTYTVTYVNPKTNDLGNISSMRPGYSIYNSGTSTQTMLTLGSDLGKPSGVKNYITDKNGRQVLSYNTSTMTTQGSGYTWGNGAQMNGFFAKKGYGLTSSWTVPITGTDTSFTFTPYAARTDRIGINYFNGGGKVVESSTT
# Assays:
# Assay in all cases: glycan array binding signal (z-score within array); higher = stronger binding
# Settings in all cases: glycan notation: IUPAC condensed, linker removed
# [1] = biological target: Gal(b1-4)GlcNAc(b1-2)Man(a1-6)[Man(a1-3)]Man(b1-4)GlcNAc(b1-4)GlcNAc
# In short: (§1)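 Negative Z-scores can be read as non-binding. The Z-score is calculated within each array and then averaged across arrays of one protein sequence at different concentrations or buffers and across linkers. Arrays, 3228 in all, were curated from the Consortium for Functional Glycomics database and kept only where the protein sequence was available.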
# [2] = biological target: Gal(b1-4)GlcNAc(b1-2)[Gal(b1-4)GlcNAc(b1-4)]Man(a1-3)[Gal(b1-4)GlcNAc(b1-2)Man(a1-6)]Man(b1-4)GlcNAc(b1-4)GlcNAc
# In short: as §1
# [3] = biological target: Gal(b1-4)GlcNAc(b1-2)[Gal(b1-4)GlcNAc(b1-4)]Man(a1-3)[Gal(b1-4)GlcNAc(b1-2)[Gal(b1-4)GlcNAc(b1-6)]Man(a1-6)]Man(b1-4)GlcNAc(b1-4)GlcNAc
# In short: as §1
# [4] = biological target: Gal(b1-4)GlcNAc(b1-2)[Gal(b1-4)GlcNAc(b1-4)]Man(a1-3)[GlcNAc(b1-4)][Gal(b1-4)GlcNAc(b1-2)Man(a1-6)]Man(b1-4)GlcNAc(b1-4)GlcNAc
# In short: as §1
# [5] = biological target: Gal(b1-4)GlcNAc(b1-2)[Gal(b1-4)GlcNAc(b1-4)]Man(a1-3)[GlcNAc(b1-4)][Gal(b1-4)GlcNAc(b1-2)[Gal(b1-4)GlcNAc(b1-6)]Man(a1-6)]Man(b1-4)GlcNAc(b1-4)GlcNAc
# In short: as §1
# [6] = biological target: Gal(b1-4)GlcNAc(b1-2)[Gal(b1-4)GlcNAc(b1-6)]Man(a1-6)[Gal(b1-4)GlcNAc(b1-2)Man(a1-3)]Man(b1-4)GlcNAc(b1-4)GlcNAc
# In short: as §1
# [7] = biological target: Gal(b1-4)GlcNAc(b1-2)[Gal(b1-4)GlcNAc(b1-6)]Man(a1-6)[Gal(b1-4)GlcNAc(b1-2)Man(a1-3)]Man(b1-4)GlcNAc(b1-4)[Fuc(a1-6)]GlcNAc
# In short: as §1
# [8] = biological target: Gal(b1-4)GlcNAc(b1-2)[Gal(b1-4)GlcNAc(b1-6)]Man(a1-6)[GlcNAc(b1-4)][Gal(b1-4)GlcNAc(b1-2)Man(a1-3)]Man(b1-4)GlcNAc(b1-4)GlcNAc
# In short: as §1
# [9] = biological target: Gal(b1-4)GlcNAc(b1-2)[Gal(b1-4)GlcNAc(b1-6)]Man(a1-6)[GlcNAc(b1-4)][Gal(b1-4)GlcNAc(b1-2)[Gal(b1-4)GlcNAc(b1-4)]Man(a1-3)]Man(b1-4)GlcNAc(b1-4)[Fuc(a1-6)]GlcNAc
# In short: as §1
# [10] = biological target: Gal(b1-4)GlcNAc(b1-3)Gal(b1-3)GalNAc
# In short: as §1
# [11] = biological target: Gal(b1-4)GlcNAc(b1-3)Gal(b1-3)GlcNAc
# In short: as §1
# [12] = biological target: Gal(b1-4)GlcNAc(b1-3)Gal(b1-4)Glc
# In short: as §1
# [13] = biological target: Gal(b1-4)GlcNAc(b1-3)Gal(b1-4)GlcNAc
# In short: as §1
# [14] = biological target: Gal(b1-4)GlcNAc(b1-3)Gal(b1-4)GlcNAc(b1-2)Man(a1-3)[Gal(b1-4)GlcNAc(b1-3)Gal(b1-4)GlcNAc(b1-2)Man(a1-6)]Man(b1-4)GlcNAc(b1-4)GlcNAc
# In short: as §1
# [15] = biological target: Gal(b1-4)GlcNAc(b1-3)Gal(b1-4)GlcNAc(b1-2)Man(a1-3)[Gal(b1-4)GlcNAc(b1-3)Gal(b1-4)GlcNAc(b1-2)Man(a1-6)]Man(b1-4)GlcNAc(b1-4)[Fuc(a1-6)]GlcNAc
# In short: as §1
# [16] = biological target: Gal(b1-4)GlcNAc(b1-3)Gal(b1-4)GlcNAc(b1-2)[Gal(b1-4)GlcNAc(b1-3)Gal(b1-4)GlcNAc(b1-6)]Man(a1-6)[Gal(b1-4)GlcNAc(b1-3)Gal(b1-4)GlcNAc(b1-2)Man(a1-3)]Man(b1-4)GlcNAc(b1-4)GlcNAc
# In short: as §1
# [17] = biological target: Gal(b1-4)GlcNAc(b1-3)Gal(b1-4)GlcNAc(b1-2)[Gal(b1-4)GlcNAc(b1-3)Gal(b1-4)GlcNAc(b1-6)]Man(a1-6)[Gal(b1-4)GlcNAc(b1-3)Gal(b1-4)GlcNAc(b1-2)Man(a1-3)]Man(b1-4)GlcNAc(b1-4)[Fuc(a1-6)]GlcNAc
# In short: as §1
# [18] = biological target: Gal(b1-4)GlcNAc(b1-3)Gal(b1-4)GlcNAc(b1-3)Gal(b1-4)GlcNAc
# In short: as §1
binder,measurement,setting,value
B1,glycan array binding signal (z-score),[1],-0.475
same,glycan array binding signal (z-score),[2],-0.616
same,glycan array binding signal (z-score),[3],-0.51
same,glycan array binding signal (z-score),[4],-0.48
same,glycan array binding signal (z-score),[5],-0.089
same,glycan array binding signal (z-score),[6],-0.542
same,glycan array binding signal (z-score),[7],-0.33
same,glycan array binding signal (z-score),[8],-0.616
same,glycan array binding signal (z-score),[9],-0.603
same,glycan array binding signal (z-score),[10],-0.344
same,glycan array binding signal (z-score),[11],-0.406
same,glycan array binding signal (z-score),[12],0.441
same,glycan array binding signal (z-score),[13],-0.274
same,glycan array binding signal (z-score),[14],0.265
same,glycan array binding signal (z-score),[15],-0.138
same,glycan array binding signal (z-score),[16],1.62
same,glycan array binding signal (z-score),[17],-0.24
same,glycan array binding signal (z-score),[18],-0.596
